To fix the notation:
B1: TEV protease; numbered along this chain (parent)
chain: MGESLFKGPRDYNPISSSICHLTNESDGHTTSLYGIGFGPFIITNKHLFRRNNGTLVVQSLHGVFKVKDTTTLQQHLVDGRDMIIIRMPKDFPPFPQKLKFREPQREERICLVTTNFQTKSMSSMVSDTSCTFPSGDGIFWKHWIQTKDGQCGSPLVSTRDGFIVGIHSASNFTNTNNYFTSVPKNFMELLTNQEAQQWVSGWRLNADSVLWGGHKVFMVKPEEPFQPVKEATQL

The experiment covers variants of B1. As to the kind of experiment: raw area under fraction-flipped curve 0-4 h after induction (AUC4h, not background-subtracted), DNA-recorder readout of cleavage of the substrate (dimensionless); higher = more cleavage of the substrate by the protease variant. Conditions: temperature: 34 °C; time window: 0-4 h after rhamnose induction. The protocol: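 In vivo DNA recorder in E. coli TOP10(DE3) ΔrhaA at 34 °C. Each TEVp single-site mutant (parent TEVp 0) is paired with a single-site variant of the 7-mer TEVs (canonical ENLYFQ|S). The substrate sits between flexible linkers in a Bxb1-sfGFP-TEVs-SsrA fusion, so cleavage stabilises Bxb1 and speeds flipping of a recombination array, read by NGS. The value is the raw area under the fraction-flipped curve over 0-4 h after rhamnose induction (AUC4h), with ≥20 reads per time point. It is not background-subtracted; inactive controls average about 0.047.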

This is one part of the list. The full chains were built here from the parent and the listed change. Values near 0.05 are background.

This note sets out measurements from the supplement of paper PMC12217912.
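Further: Bxb1 expression induced with 0.2% (w/v) L-rhamnose at OD600 near 0.5, cultures sampled hourly, flipped fraction per protease–substrate barcode pair counted by paired-end Illumina sequencing.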

For the variant MGESLFKGPRDYNPISSSICHLTNESDGHTTSLYGIGFGPFIITNKHLFRRNNGTLVVQSLHGVFKVKDTTTLQQHLVDGRDMIIIRMPKDFPPFPQKLKFREPQREERICLVTTNFQTKSMSSMVSDTSCTFPSGDGIFWKHWIQTKDGQCGSPLVSTRDGFIVGIHSASNFTNTNNYFTSVPKNFMELLTNQEAQQWVSGWRWNADSVLWGGHKVFMVKPEEPFQPVKEATQL [L205W], the “area with substrate ENLYAQS” value is 0.0663, the “area with substrate ENLYCQS” value stood at 0.0698, the “area with substrate ENLYEQS” value turned out to be 0.0552 and the “area with substrate ENLYHQS” value is 0.0541. Also, the “area with substrate ENLYLQS” value amounted to 0.0652, the “area with substrate ENLYPQS” value stood at 0.0638, the “area with substrate ENLYQQS” value turned out to be 0.0756 and the “area with substrate ENLYRQS” value was found to be 0.0643. The “area with substrate ENLYSQS” value worked out at 0.0608 and the “area with substrate ENLYVQS” value was found to be 0.0692.

On to MGESLFKGPRDYNPISSSICHLTNESDGHTTSLYGIGFGPFIITNKHLFRRNNGTLVVQSLHGVFKVKDTTTLQQHLVDGRDMIIIRMPKDFPPFPQKLKFREPQREERICLVTTNFQTKSMSSMVSDTSCTFPSGDGIFWKHWIQTKDGQCGSPLVSTRDGFIVGIHSASNFTNTNNYFTSVPKNEMELLTNQEAQQWVSGWRLNADSVLWGGHKVFMVKPEEPFQPVKEATQL [F187E], for which the “area with substrate ENLYAQS” value was 0.0424, the “area with substrate ENLYDQS” value came out at 0.0587, the “area with substrate ENLYEQS” value turned out to be 0.0541 and the “area with substrate ENLYGQS” value came out at 0.0571. The “area with substrate ENLYHQS” value is 0.0479, the “area with substrate ENLYIQS” value was 0.0465, the “area with substrate ENLYKQS” value is 0.028 and the “area with substrate ENLYLQS” value is 0.0574. Moreover, the “area with substrate ENLYMQS” value was 0.0426, the “area with substrate ENLYNQS” value was determined as 0.0442, the “area with substrate ENLYPQS” value amounted to 0.0492 and the “area with substrate ENLYRQS” value was found to be 0.0632. In addition, the “area with substrate ENLYSQS” value was 0.0572, the “area with substrate ENLYVQS” value was determined as 0.0542, the “area with substrate ENLYWQS” value came out at 0.0473 and the “area with substrate ENLYYQS” value was found to be 0.0466.

With MGESLFKGPRDYNPISSSICHLTNESDGHTTSLYGIGFGPFIITNKHLFRRNNGTLVVQSLHGVFKVKDTTTLQQHLVDGRDMIIIRMPKDFPPFPQKLKFREPQREERICLVTTNFQTKSMSSMVSDTSCTFPSGDGIFWKHWIQTKDGQCGSPLVSTRDGFIVGIHSASNFTNTNNYFTSVPKNQMELLTNQEAQQWVSGWRLNADSVLWGGHKVFMVKPEEPFQPVKEATQL [F187Q], the “area with substrate ENLYAQS” value amounted to 0.0563, the “area with substrate ENLYDQS” value came out at 0.061, the “area with substrate ENLYEQS” value turned out to be 0.0342 and the “area with substrate ENLYHQS” value was 0.066. Further, the “area with substrate ENLYIQS” value stood at 0.156, the “area with substrate ENLYKQS” value came out at 0.0527, the “area with substrate ENLYMQS” value was 0.0592 and the “area with substrate ENLYNQS” value worked out at 0.0513. In addition, the “area with substrate ENLYPQS” value turned out to be 0.051, the “area with substrate ENLYQQS” value was 0.0622, the “area with substrate ENLYRQS” value came to 0.0674 and the “area with substrate ENLYVQS” value was found to be 0.0912. The “area with substrate ENLYWQS” value stood at 0.0573 and the “area with substrate ENLYYQS” value came to 0.0639.

For the variant MGESLFKGPRDYNPISSSICHLTNESDGHTTSLYGIGFGPFIITNKHLFRRNNGTLVVQSLHGVFKVKDTTTLQQHLVDGRDMIIIRMPKDFPPFPQKLKFREPQREERICLVTTNFQTKSMSSMVSDTSCTFPSGDGIFWKHWIQTKDGQCGSPLVSTRDGFIVGIHSASNFTNTNNYFTSVPKNFMELLTNQEAQQWVSGWRLNADSVLWGGHKQFMVKPEEPFQPVKEATQL [V217Q], the “area with substrate ENLYAQS” value was found to be 0.182, the “area with substrate ENLYCQS” value worked out at 0.061, the “area with substrate ENLYDQS” value worked out at 0.0577 and the “area with substrate ENLYEQS” value stood at 0.0562. Besides, the “area with substrate ENLYGQS” value was determined as 0.0543, the “area with substrate ENLYIQS” value came to 0.061, the “area with substrate ENLYKQS” value was 0.0529 and the “area with substrate ENLYLQS” value is 0.0862. For the same variant, the “area with substrate ENLYMQS” value came out at 0.0615, the “area with substrate ENLYNQS” value was determined as 0.0538, the “area with substrate ENLYQQS” value stood at 0.0672 and the “area with substrate ENLYRQS” value came to 0.0553. The “area with substrate ENLYSQS” value came to 0.0522, the “area with substrate ENLYTQS” value stood at 0.0448 and the “area with substrate ENLYVQS” value was 0.0584.

MGESLFKGPRDYNPISSSICHLTNESDGHTTSLYGIGFGPFIITNKHLFRRNNGTLVVQSLHGVFKVKDTTTLQQHLVDGRDMIIIRMPKDFPPFPQKLKFREPQREERICLVTTNFQTKSMSSMVSDTSCTFPSGDGIFWKHWIQTKDGQCGSPLVSTRDGFIVGIHSASNFTNTNNYFTSVPKNFMELLTNQEAQQWVSGWRLNADSVLWGGHKVFMVKPEEPFQPVKEAGQL [T233G]: the “area with substrate ENLYAQS” value was 0.0745, the “area with substrate ENLYCQS” value stood at 0.084, the “area with substrate ENLYDQS” value worked out at 0.0587 and the “area with substrate ENLYEQS” value came out at 0.0594. Further, the “area with substrate ENLYGQS” value stood at 0.0637, the “area with substrate ENLYHQS” value amounted to 0.0679, the “area with substrate ENLYIQS” value worked out at 0.135 and the “area with substrate ENLYMQS” value came to 0.092. The “area with substrate ENLYNQS” value came to 0.0603, the “area with substrate ENLYPQS” value was 0.0723, the “area with substrate ENLYQQS” value stood at 0.0628 and the “area with substrate ENLYRQS” value came to 0.0552. The “area with substrate ENLYTQS” value is 0.0874 and the “area with substrate ENLYVQS” value came to 0.103.

As to MGESLFKGPRDYNPISSSICHLTNESDGHTTSLYGIGFGPFIITNKHLFRRNNGTLVVQSLHGVFKVKDTTTLQQHLVDGRDMIIIRMPKDFPPFPQKLKFREPQREERICLVTTNFQTKSMSSMVSDTSCTFPSGDGIFWKHWIQTKDGQCGSPLVSTRDGFIVGIHSASNFTNTNNYFTSVPKNFMELLTNQEAQQWVSGWRLNADSVLWGGHKVPMVKPEEPFQPVKEATQL [F218P], the “area with substrate ENLYAQS” value came out at 0.08, the “area with substrate ENLYEQS” value came out at 0.0597, the “area with substrate ENLYGQS” value is 0.072 and the “area with substrate ENLYHQS” value was determined as 0.0559. The “area with substrate ENLYKQS” value is 0.0734, the “area with substrate ENLYMQS” value was determined as 0.0601, the “area with substrate ENLYPQS” value was 0.0521 and the “area with substrate ENLYQQS” value is 0.0676. For the same variant, the “area with substrate ENLYRQS” value was 0.0673, the “area with substrate ENLYTQS” value worked out at 0.0605 and the “area with substrate ENLYVQS” value came to 0.0516.

Consider MGESLFKGPRDYNPISSSICHLTNESDGHTTSLYGIGFGPFIITNKHLFRRNNGTLVVQSLHGVFKVKDTTTLQQHLVDGRDMIIIRMPKDFPPFPQKLKFREPQREERICLVTTNFQTKSMSSMVSDTSCTFPSGDGIFWKHWIQTKDGQCGSPLVSTRDGFIVGIHSASNFTNTNNYFTSVPKNFMELLTNQEAKQWVSGWRLNADSVLWGGHKVFMVKPEEPFQPVKEATQL [Q197K], for which the “area with substrate ENLYAQS” value was found to be 0.0511, the “area with substrate ENLYDQS” value was 0.0842, the “area with substrate ENLYEQS” value was 0.0652 and the “area with substrate ENLYGQS” value was 0.0543. Moreover, the “area with substrate ENLYHQS” value was 0.0564, the “area with substrate ENLYIQS” value was found to be 0.121, the “area with substrate ENLYLQS” value was 0.0779 and the “area with substrate ENLYNQS” value was found to be 0.0591. In addition, the “area with substrate ENLYPQS” value was determined as 0.0746, the “area with substrate ENLYVQS” value was 0.148, the “area with substrate ENLYWQS” value turned out to be 0.0724 and the “area with substrate ENLYYQS” value worked out at 0.086.

Turning to MGESLFKGPRDYNPISSSICHLTNESDGHTTSLYGIGFGPFIITNKHLFRRNNGTLVVQSLHGVFKVKDTTTLQQHLVDGRDMIIIRMPKDFPPFPQKLKFREPQREERICLVTTNFQTKSMSSMVSDTSCTFPSGDGIFWKHWIQTKDGQCGSPLVSTRDGFIVGIHSASNFTNTNNYFTSVPKNFMELLTNQEAQQWVSGWRLNADSVLWGGDKVFMVKPEEPFQPVKEATQL [H215D], the “area with substrate ENLYAQS” value was 0.0535, the “area with substrate ENLYDQS” value stood at 0.0484, the “area with substrate ENLYEQS” value was 0.062 and the “area with substrate ENLYGQS” value stood at 0.0587. Further, the “area with substrate ENLYHQS” value was determined as 0.0622, the “area with substrate ENLYIQS” value is 0.0619, the “area with substrate ENLYKQS” value amounted to 0.0487 and the “area with substrate ENLYNQS” value came out at 0.0701. For the same variant, the “area with substrate ENLYPQS” value came to 0.0597, the “area with substrate ENLYQQS” value is 0.0622, the “area with substrate ENLYRQS” value was determined as 0.0596 and the “area with substrate ENLYWQS” value turned out to be 0.0953.

MGESLFKGPRDYNPISSSICHLTNESDGHTTSLYGIGFGPFIITNKHLFRRNNGTLVVQSLHGVFKVKDTTTLQQHLVDGRDMIIIRMPKDFPPFPQKLKFREPQREERICLVTTNFQTKSMSSMVSDTSCTFPSGDGIFWKHWIQTKDGQCGSPLVSTRDGFIVGIHSASNFTNTNNYFTSVPKNFMELLTNQEAQQWVSGWRLNADSVLWGGWKVFMVKPEEPFQPVKEATQL [H215W]: the “area with substrate ENLYAQS” value was found to be 0.068, the “area with substrate ENLYDQS” value came to 0.0586, the “area with substrate ENLYEQS” value was determined as 0.0648 and the “area with substrate ENLYGQS” value turned out to be 0.064. In addition, the “area with substrate ENLYHQS” value is 0.0649, the “area with substrate ENLYIQS” value came out at 0.0677, the “area with substrate ENLYKQS” value stood at 0.0411 and the “area with substrate ENLYLQS” value is 0.0474. For the same variant, the “area with substrate ENLYMQS” value came out at 0.0428, the “area with substrate ENLYNQS” value was 0.0675, the “area with substrate ENLYPQS” value stood at 0.0586 and the “area with substrate ENLYQQS” value stood at 0.0606. For the same variant, the “area with substrate ENLYRQS” value was found to be 0.0551, the “area with substrate ENLYSQS” value turned out to be 0.0591, the “area with substrate ENLYTQS” value was determined as 0.0592 and the “area with substrate ENLYVQS” value amounted to 0.0519. Besides, the “area with substrate ENLYWQS” value turned out to be 0.0611.
